Test results from article PMC8482806, “A Novel Blood-Brain Barrier-Permeable Chemotherapeutic Agent for the Treatment of Glioblastoma” (Cureus, 2021).
The source gives many values for each of these; only a part stands here.

Assay: [14C]-QBS10072S distribution by quantitative whole-body autoradiography in mice with intracranial LN229 tumors
Type: in vivo, mouse
Conditions: 5 mg/kg IV
Procedure: Athymic mice with intracranial implanted LN229 cells received a single IV dose of 5 mg/kg and 200 μCi/kg [14C]-QBS10072S into the tail vein using the formulation described above. Animals (one per time point) were sacrificed one, eight, and 24 hours post-dose, and frozen in a hexane/solid carbon dioxide bath for at least 10 minutes. The carcasses were processed as described for quantitative whole-body autoradiography. Briefly, sagittal sections (~ 40 μm thick) were cut using a microtome, mounted, and exposed to a [14C]-sensitive phosphor imaging plate for four days. The images were scanned and quantitated by image densitometry using MCID image analysis software. The concentrations of radioactivity were expressed as the μg equivalents of test article per gram sample (μg equiv/g). The upper and lower limits of quantification were 550 and 0.008 μg equiv/g, respectively (QPS, Newark, DE).

Structure (SMILES): Cc1ccc(N(CCCl)C[14CH2]Cl)cc1C[C@H](N)CC(=O)O.Cl.Cl [[14C]-QBS10072S, [chloroethyl-2-14C]-QBS10072S×2HCl]
- Tissue Concentration (Bile (in gall bladder), 1 h): 3.649 µg equiv/g tissue
- Tissue Concentration (Bile (in gall bladder), 8 h): 2.006 µg equiv/g tissue
- Tissue Concentration (Bile (in gall bladder), 24 h): 0.564 µg equiv/g tissue
- Tissue Concentration (Bone Marrow, 1 h): 1.320 µg equiv/g tissue
- Tissue Concentration (Bone Marrow, 8 h): 0.386 µg equiv/g tissue
- Tissue Concentration (Bone Marrow, 24 h): 0.520 µg equiv/g tissue
- Tissue Concentration (Eye (lens), 1 h): 0.078 µg equiv/g tissue
- Tissue Concentration (Eye (lens), 8 h): 0.023 µg equiv/g tissue
- Tissue Concentration (Eye (lens), 24 h): 0.013 µg equiv/g tissue
- Tissue Concentration (Eye (uvea), 1 h): 0.692 µg equiv/g tissue
- Tissue Concentration (Eye (uvea), 8 h): 0.277 µg equiv/g tissue
- Tissue Concentration (Eye (uvea), 24 h): 0.166 µg equiv/g tissue
- Tissue Concentration (Kidney (cortex), 1 h): 5.848 µg equiv/g tissue
- Tissue Concentration (Kidney (cortex), 8 h): 1.272 µg equiv/g tissue
- Tissue Concentration (Kidney (cortex), 24 h): 1.077 µg equiv/g tissue
- Tissue Concentration (Kidney (inner medulla), 1 h): 3.704 µg equiv/g tissue
- Tissue Concentration (Kidney (inner medulla), 8 h): 0.498 µg equiv/g tissue
- Tissue Concentration (Kidney (inner medulla), 24 h): 0.458 µg equiv/g tissue
- Tissue Concentration (Large Intestine (contents), 1 h): 4.090 µg equiv/g tissue
- Tissue Concentration (Large Intestine (contents), 8 h): 147.823 µg equiv/g tissue
- Tissue Concentration (Large Intestine (contents), 24 h): 19.396 µg equiv/g tissue
- Tissue Concentration (Large Intestine, 8 h): 0.594 µg equiv/g tissue
- Tissue Concentration (Large Intestine, 24 h): 0.511 µg equiv/g tissue
- Tissue Concentration (Lymph Node, 1 h): 1.670 µg equiv/g tissue
- Tissue Concentration (Lymph Node, 8 h): 0.481 µg equiv/g tissue
- Tissue Concentration (Lymph Node, 24 h): 0.354 µg equiv/g tissue
- Tissue Concentration (Oral Mucosa, 1 h): 0.900 µg equiv/g tissue
- Tissue Concentration (Oral Mucosa, 8 h): 0.399 µg equiv/g tissue
- Tissue Concentration (Oral Mucosa, 24 h): 0.390 µg equiv/g tissue
- Tissue Concentration (Small Intestine (contents), 1 h): 65.367 µg equiv/g tissue
- Tissue Concentration (Small Intestine (contents), 8 h): 1.429 µg equiv/g tissue
- Tissue Concentration (Small Intestine (contents), 24 h): 3.802 µg equiv/g tissue
- Tissue Concentration (Small Intestine, 1 h): 4.374 µg equiv/g tissue
- Tissue Concentration (Small Intestine, 8 h): 0.760 µg equiv/g tissue
- Tissue Concentration (Small Intestine, 24 h): 0.355 µg equiv/g tissue
- Tissue Concentration (Spleen, 1 h): 1.625 µg equiv/g tissue
- Tissue Concentration (Spleen, 8 h): 0.370 µg equiv/g tissue
- Tissue Concentration (Spleen, 24 h): 0.503 µg equiv/g tissue
- Tissue Concentration (Stomach (contents), 1 h): 0.160 µg equiv/g tissue
- Tissue Concentration (Stomach (contents), 8 h): 0.405 µg equiv/g tissue
- Tissue Concentration (Stomach (contents), 24 h): 4.882 µg equiv/g tissue
- Tissue Concentration (Stomach (gastric mucosa), 1 h): 1.066 µg equiv/g tissue
- Tissue Concentration (Stomach (gastric mucosa), 8 h): 0.591 µg equiv/g tissue
- Tissue Concentration (Stomach (gastric mucosa), 24 h): 0.565 µg equiv/g tissue
